# Measured values as given in ChEMBL document CHEMBL4888484, “Replenishing the malaria drug discovery pipeline: Screening and hit evaluation of the MMV Hit Generation Library 1 (HGL1) against asexual blood stage Plasmodium falciparum ,using a nano luciferase reporter read-out” (2022).
# Screen size: about 150,000 compounds; about 540 (0.36%) showed an effect of 50% or more. Some of the results follow.
# System: Plasmodium falciparum
# Assay: Primary screen in NF54 nanoGlo assay, in single point, at 2uM, 72h; a lower Z score goes with more inhibition
# Type: functional, Erythrocyte
# Settings: timepoint 72 hour
SMILES,% Inhibition,Z score
CC1COC(c2cccc(Cl)c2)CN1C(=O)c1ccc(=O)n(C)n1 (configuration not stated),-7%,0.63
N#CCNC(=O)CCOc1ccccc1Cl,33%,-2.99
Cc1nccc(NC(=O)CCC(F)(F)F)c1Cl,-1%,0.05
O=C(O)c1ccc(C(=O)N(CC2CC2)c2ccccc2)s1,-1%,0.21
CCCOc1cccc(-c2cn(Cc3cc(C)on3)nn2)c1,16%,-2.03
CC(C)[C@@H](O)CNC(=O)c1cc(Br)cnc1C1CC1,-10%,1.65
O=C1COc2ccc(S(=O)(=O)N[C@H]3CCOC3=O)cc2N1,-20%,1.75
CC[C@](C)(NC(=O)Cc1ccc2c(c1)NC(=O)C2)c1nc(C)cs1,17%,-2.16
O=C(NC1(CN2CCCC2)CCCCC1)[C@H]1CCOC1,18%,-2.35
Cc1nc(C)c(C(=O)N(CCN2CCOCC2)c2ccccc2)s1,-2%,0.26
Cc1ccccc1CNC(=O)c1ccccc1NC(=O)C1CC=CCC1C(=O)O (configuration not stated),33%,-4.24
CC(C)(C#N)CS(=O)(=O)N1CCN(c2cccc3[nH]cnc23)CC1,-7%,1.45
Cc1nnc([C@@H]2CC3(CCN(CCc4ccccc4)CC3)CN2CCc2ccccc2)o1,-3%,0.42
COc1ccc(Cc2nc(-c3cccc(-c4csc(C)n4)c3)no2)cc1,-2%,0.25
C=CCN(C(=O)CCn1c(C)cc(C)nc1=O)C1CCCC1,-5%,0.96
Cc1ccc(CC(=O)Nc2nc(-c3ccccc3)c(Br)s2)cn1,-10%,1.58
Cc1cccc([C@H]2CCCN(C(=O)CCc3nncn3C)C2)c1,-5%,0.92
CC[C@]1(N2CCN(S(=O)(=O)c3ccc(F)c(C)c3)CC2)CCN(S(C)(=O)=O)C1,1%,-0.06
Cc1cnc(N2CCCC2CO)nc1N1CCCC1CO (configuration not stated),-5%,0.99

SMILES,% Inhibition,Z score
Cc1ccc2c(c1)c(CNc1ncnc3c1CCNCC3)nn2C,-12%,2.34
N#Cc1ccc(Oc2ccc(NC(=O)N3CCCC3)cc2)cc1,2%,-0.27
Cc1nc(NCC(C)C)sc1C(=O)Nc1cccc2[nH]ccc12,1%,-0.12
CCn1cnnc1CCn1cnc(-c2ccccc2)c1[C@H]1CCOC1,4%,-0.38
CCc1ccc(C(=O)N2C[C@@H](CN3CCCCCC3)[C@@H](CO)C2)s1,-8%,1.39
Cc1ccc2cc3c(nc2c1)N(C(=O)c1ccc(F)cc1)CC3,-14%,1.55
CC[C@H](C)Oc1cc(CNC(=O)Nc2cnn(C)c2)ccn1,-9%,1.69
O=S(=O)(Nc1cc(-c2ccsc2)no1)c1ccc(F)c(F)c1,-3%,0.5
O=C(N[C@@H](CC1CCC1)c1ccccc1)c1cc2c(=O)[nH]cnc2cn1,3%,-0.49
O=S(=O)(Nc1nc2ccccc2nc1Nc1ccc(F)c(Cl)c1)c1cccc2c1N=S=N2,-7%,0.9
CCOC(=O)C(C)N1CC(C)OC(C2CC2)C1 (configuration not stated),-5%,0.61
CCOCC(=O)N1CCC[C@H]1c1nn(CCOc2ccccc2)c2c1COCC2,30%,-2.9
CN(C)S(=O)(=O)c1ccc(C(=O)Nc2cnoc2)cc1,-7%,1.2
CCN(CC)Cc1cnc2c(C(=O)N3CCCCCCC3)cnn2c1,3%,-0.44
O=C(Nc1cnc2nc[nH]n2c1=O)c1ccc(F)cc1,0%,0.04
CCN(C)c1nc(-c2cccc(C)c2)ncc1C(=O)Nc1ccc(F)cc1,-22%,4.19
O=C(c1ccc2c(c1)CCO2)N1C[C@H]2C[C@H](O)[C@H](O)C[C@H]2C1,-4%,0.71
COc1ccccc1CCCn1cccc(C)c1=O,0%,0.04
CCc1nc(NCCNC(=O)c2ccco2)c2cc(Cl)cc(Cl)c2n1,3%,-0.35

SMILES,% Inhibition,Z score
Cc1ccc(NS(C)(=O)=O)c(C(=O)NCC(=O)NC(C)(C)C)c1,2%,-0.27
Cc1ccsc1C(=O)N1C[C@H]2CCC[C@@H](O)[C@H]2C1,-12%,1.15
Cc1ccc2[nH]cc(-c3cnn4cccnc34)c2c1,7%,-0.67
Cc1ccc(CN2CCC(CN(C)C(=O)C3CCCC(=O)N3)C2)s1 (configuration not stated),5%,-0.67
CCCCOc1c(Cl)cc(CNCC)cc1Cl,9%,-1.58
O=C(NCc1c[nH]nc1-c1ccc(F)cc1)c1cn(CC2CCCCC2)nn1,-7%,1.21
COC1(CNC(=O)NC[C@H](C)c2ccsc2)CCC1,6%,-0.62
O=C(c1cc(Cl)ccc1Cl)N1CCCN(CCn2cccn2)CC1,-21%,4.07
Cc1cnc(C2CC2)n1CCNC(=O)C(C)C,-8%,1.43
C[C@](NC(=O)CCCc1nc(C2CC2)no1)(C(=O)O)c1cc(F)ccc1F,-23%,2.36
Cn1nnc2ccc(-c3noc(C4CC4)n3)cc21,-9%,1
O=C(Nc1nc(C(=O)Nc2ccc(Br)cc2)co1)c1ccncc1,8%,-1.04
O=C(Nc1cccc(-c2nnco2)c1)[C@@H]1CCCN1S(=O)(=O)c1ccccc1F,-10%,1.32
CN1c2cccnc2CN(C2CCCC2)CC[C@H]1CO,-9%,1.3
CN1CCN(C(=O)c2ccncc2)c2ccccc2C1,-4%,0.52
Cc1cc(CNC(=O)Nc2ccccc2N2CCCC2=O)on1,-3%,0.38
COCc1ccc(C(=O)N[C@@H](C)Cc2cccc(C)n2)o1,-1%,0.17
Cc1nccn1[C@@H](C)CC(=O)N(C)CCn1ccnc1,-15%,1.9
